# Results published in the BET-seq Pho4 binding data (Le et al. 2018).
# This is one part of the list. Values were computed here from the reads of four pooled replicates and scatter widely.
# Biological target: T1, Pho4 (S. cerevisiae) (UniProt P07270)
# T1 sequence: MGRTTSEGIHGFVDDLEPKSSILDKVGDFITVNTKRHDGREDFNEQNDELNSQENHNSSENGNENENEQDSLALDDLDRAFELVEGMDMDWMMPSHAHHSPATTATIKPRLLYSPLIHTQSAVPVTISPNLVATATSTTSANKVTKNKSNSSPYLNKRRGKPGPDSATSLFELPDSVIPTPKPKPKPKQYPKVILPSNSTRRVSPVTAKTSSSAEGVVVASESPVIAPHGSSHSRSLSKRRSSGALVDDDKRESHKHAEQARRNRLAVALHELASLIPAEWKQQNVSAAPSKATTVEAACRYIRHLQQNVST
# Test: relative binding free energy (BET-seq); higher = weaker binding
# Conditions: reference: library average
row,Sequence,relative binding free energy [kcal/mol]
1,TAGTTCACGTGAATAT,0.43
2,TTGTTCACGTGTAAGA,0.32
3,TTCGACACGTGATTGG,0.13
4,GAGGTCACGTGGGTCA,-0.06
5,TGGAGCACGTGGATAA,-0.03
6,TCGGCCACGTGTGGAT,0.22
7,TATGTCACGTGTGCCG,0
8,TCGTTCACGTGGCAGT,0.21
9,ATCATCACGTGATGGG,0.33
10,ATGCTCACGTGGGCGT,0.09
11,AGTGACACGTGGCGTA,-0.23
12,AGTCGCACGTGGTTTT,0.11
13,ATGCTCACGTGCGTTG,0.18
14,AGTGTCACGTGGCGGT,0.05
15,AATAGCACGTGGGAGT,-0.07
16,TTTGGCACGTGTCGGG,-0.22
17,CACTACACGTGGTGGT,0.16
18,GGCTTCACGTGGTAGC,0.43
19,ATGGCCACGTGTAGTA,-0.08
20,AGGAACACGTGGAGAG,0.11
21,ACGTGCACGTGGTTAG,-0.13
22,TAATACACGTGAGGAG,0.2
23,GTTTACACGTGATGGG,0.15
24,TCTTTCACGTGTAATT,0.35
25,TATGGCACGTGAAGAT,-0.04
26,GGGGGCACGTGGCTCA,-0.23

row,Sequence,relative binding free energy [kcal/mol]
1,AGTAACACGTGTAGGA,0.05
2,ATCAGCACGTGGTGTT,-0.23
3,TTAGTCACGTGTTAGC,0.12
4,GCATACACGTGGGGTG,0.09
5,GGTGGCACGTGGCGGG,-0.1
6,AATAGCACGTGTGAGG,-0.15
7,GTCTACACGTGTAGGG,0.07
8,TAACTCACGTGGGTGG,0.15
9,GGGTCCACGTGTTTTA,0
10,ATAAGCACGTGAGAGG,0.1
11,CTAGTCACGTGGTTAG,0.09
12,TTTATCACGTGAGGTT,0.31
13,CTGTTCACGTGAAAGT,0.43
14,CTTAGCACGTGGGAAT,-0.03
15,GTGCTCACGTGGGGGT,0.16
16,AGAGTCACGTGTGCGA,0.09
17,ATTATCACGTGAATTG,0.33
18,AGAGTCACGTGGAAGT,0.1
19,ATTAGCACGTGGGAAT,-0.02
20,TTTATCACGTGTATTG,0.16
21,AGTGGCACGTGGAGGG,-0.04
22,TGATACACGTGAATTG,0.14
23,TTATTCACGTGGCGTA,0.15
24,GTGGTCACGTGGTGAC,0
25,TTAGACACGTGGGAAA,-0.01
26,CATGGCACGTGGGTTT,-0.04

row,Sequence,relative binding free energy [kcal/mol]
1,GTGTACACGTGAAGGA,0.31
2,GTTTGCACGTGCATTT,0.13
3,TAGTGCACGTGGTAAA,-0.12
4,TGTTGCACGTGGGAAT,-0.04
5,GTCTTCACGTGGTTAA,0.33
6,ATGTTCACGTGATAAA,0.37
7,GGGGCCACGTGATGGG,0.07
8,GTTGCCACGTGCGTGG,-0.08
9,TTAATCACGTGTTCGG,0.08
10,TTTGGCACGTGGTTTC,-0.12
11,GGTTGCACGTGTTTGA,0
12,TCTGACACGTGGTTAT,-0.09
13,TTTCTCACGTGAGGTT,0.42
14,GGGGTCACGTGTAGTA,0.23
15,TTGCGCACGTGGTGGC,-0.21
16,TTACTCACGTGTTAAG,0.28
17,AACGTCACGTGTTGTT,0.14
18,CTTAACACGTGGTTGG,0.01
19,TATTTCACGTGATTCG,0.35
20,TAGGACACGTGAGAGT,0.13
21,GTGGACACGTGGGCCT,-0.07
22,TAATGCACGTGGGAAA,-0.14
23,ATATGCACGTGGGAGT,-0.13
24,TTGGGCACGTGAAAAT,0.12
25,TATGTCACGTGATATA,0.16
26,TCAGACACGTGGTTGG,-0.02

row,Sequence,relative binding free energy [kcal/mol]
1,GATGGCACGTGGGGGA,-0.15
2,TTTGGCACGTGGAATC,-0.01
3,CTGGGCACGTGAAGCG,0.22
4,TATTTCACGTGGCGTA,0.16
5,GTTGTCACGTGAGTGG,0.25
6,CGGTGCACGTGGTGGT,-0.1
7,TAGGGCACGTGGACAG,-0.13
8,TATTTCACGTGTATGC,0.42
9,CGTGGCACGTGGGGCT,-0.24
10,GGAGGCACGTGATCGT,-0.14
11,ATGGGCACGTGTCTAG,-0.07
12,GAGGGCACGTGAGTGG,0.2
13,TAGCTCACGTGTGAGG,0.28
14,GGGGACACGTGGCCGG,-0.02
15,CGAGGCACGTGGCGGA,-0.25
16,ATTCTCACGTGGTAGG,0.24
17,TGACTCACGTGCGGTT,0.12
18,GTGTACACGTGGTGTA,-0.06
19,GATTTCACGTGATTAA,0.41
20,GATTCCACGTGGGGTG,-0.01
21,AGGGGCACGTGTAACT,-0.07
22,CTGGTCACGTGTCGGT,0.1
23,TTAGGCACGTGGAGTG,-0.16
24,CTGTGCACGTGTTCGT,-0.07
25,GGTGACACGTGCTGAT,0.2
26,GAAGGCACGTGGGGCC,-0.12

row,Sequence,relative binding free energy [kcal/mol]
1,ATGATCACGTGTGGTT,0.12
2,CTTTTCACGTGAGATT,0.3
3,AAGCTCACGTGGAGGG,0.32
4,GTTAACACGTGGATAT,-0.02
5,GGGGTCACGTGCTGGA,0.12
6,AGTCGCACGTGGTATG,-0.23
7,TGAATCACGTGGAGTT,0.32
8,TGTTACACGTGTCCGG,0.07
9,AATAACACGTGATTTG,0.12
10,GTGGTCACGTGATAGG,0.25
11,ATAAGCACGTGTGGAG,-0.12
12,ATTGGCACGTGGGGAT,-0.12
13,TATTTCACGTGGTTGA,0.23
14,GGATTCACGTGGACGG,0.38
15,GTGTGCACGTGGTAGT,-0.04
16,AGGTGCACGTGACGTA,0.15
17,GCTTACACGTGCGGGG,0.07
18,ATGGTCACGTGGACGA,0.3
19,GGGAACACGTGGGTAT,-0.06
20,AGCGGCACGTGGGCGT,-0.26
21,GTGAGCACGTGGGGAC,-0.19
22,TGGCGCACGTGGTAAA,-0.06
23,ATGTACACGTGTTTAC,0.06
24,GTGAGCACGTGCAAGT,0.02
25,GGAGACACGTGTGTGC,0
26,AGTGTCACGTGTGGCT,-0.06

row,Sequence,relative binding free energy [kcal/mol]
1,CGCGACACGTGGGGCG,-0.14
2,TTAATCACGTGGATGG,0.17
3,TTGATCACGTGATATA,0.13
4,TGTTGCACGTGACAGT,0.07
5,TAAGTCACGTGAATGT,0.19
6,TTAGACACGTGGTCAG,-0.16
7,ATGGGCACGTGAGAGT,0.14
8,TACGCCACGTGGTGGG,-0.26
9,TGTCTCACGTGGTGCT,0.07
10,TGGTTCACGTGTAAGT,0.24
11,AATGTCACGTGGTTGG,0.11
12,TGGAGCACGTGTCGAG,-0.08
13,GGTGGCACGTGAGCGT,0.06
14,GTTGGCACGTGTCGTC,-0.01
15,GTTGTCACGTGTCAGT,0.02
16,GTCGCCACGTGGAGGG,0.03
17,GCAATCACGTGGTTTG,0.09
18,GGTGCCACGTGTGGTA,-0.09
19,CAGTGCACGTGGGAAG,-0.08
20,AAGGACACGTGAGTGA,0.35
21,GTATGCACGTGATTAT,0.18
22,ATAAGCACGTGTAGGG,-0.11
23,TTTCTCACGTGTAGAG,0.25
24,GTTTGCACGTGTGTCA,0
25,GGGTGCACGTGTTGTG,-0.02
26,TGTTCCACGTGTGGGA,0.06

row,Sequence,relative binding free energy [kcal/mol]
1,TTATACACGTGTCGTG,-0.06
2,GGGTACACGTGGGGGA,-0.01
3,TGTTCCACGTGGATTT,0.05
4,ATTGGCACGTGTCGTG,-0.1
5,TGTAGCACGTGGGTGC,-0.3
6,AGTGTCACGTGCAGAG,0.02
7,AGGGCCACGTGAAGGT,0.21
8,CGATTCACGTGTGGGA,0.18
9,TATGGCACGTGGAAAG,-0.09
10,AATCGCACGTGATGGT,0.13
11,TAGTACACGTGGTCTT,-0.01
12,CGAGGCACGTGCGTGG,-0.23
13,TTAGTCACGTGGGTGA,-0.1
14,TAAAACACGTGGGGAT,-0.04
15,AATGGCACGTGGGGTG,-0.24
16,AGGGGCACGTGGAAGA,0.04
17,TGCGCCACGTGTGGGG,-0.11
18,CATCTCACGTGGTGTG,0.2
19,ATCGGCACGTGGCGCG,-0.14
20,GGGTTCACGTGGTGTC,0.29
21,CGAGTCACGTGGTTTG,0.11
22,CAGTTCACGTGAGTGG,0.25
23,CATTTCACGTGCATGT,0.46
24,AAGGTCACGTGAGGGT,0.39
25,GTTCACACGTGTGTGC,0.25
26,GTGTACACGTGCGGGT,0

row,Sequence,relative binding free energy [kcal/mol]
1,AGGTCCACGTGGATTG,0.09
2,AAAGGCACGTGGTTAT,-0.14
3,TTCATCACGTGTGTTA,0.22
4,TAAGTCACGTGGAGTC,0.19
5,GTTTCCACGTGATGGA,0.45
6,AAAGTCACGTGTTGCT,0.14
7,GGTTGCACGTGTCTCG,0.07
8,AGCAGCACGTGGTTAG,-0.1
9,GGATCCACGTGGGGTA,-0.1
10,CATGTCACGTGGTCTT,0.05
11,CGTGTCACGTGTGACT,0.19
12,GGAGTCACGTGGTCGA,0.06
13,GAGGGCACGTGGCAAG,-0.08
14,TAGGTCACGTGGGTTA,-0.11
15,TTAGACACGTGATGGC,0.25
16,TGTCGCACGTGTTGTA,-0.03
17,CGAATCACGTGGGAGT,0.1
18,ATAGGCACGTGCGGTA,-0.3
19,GGCATCACGTGTGGCT,0.19
20,TCTTTCACGTGTGGCT,0.17
21,TTCTTCACGTGATTTG,0.29
22,TACGTCACGTGGAGTT,0.11
23,CTTAGCACGTGGAGGG,-0.14
24,AATTTCACGTGATTTT,0.17
25,ACTGACACGTGTAGTT,0.14
26,AGTGTCACGTGGGCCA,-0.15

row,Sequence,relative binding free energy [kcal/mol]
1,TGTACCACGTGTATGG,-0.07
2,GATTGCACGTGGTGGT,0.08
3,GGGGTCACGTGTTACA,0.12
4,GAGGCCACGTGGGATG,-0.19
5,ACATGCACGTGTGGTA,-0.04
6,AGATTCACGTGTTTAA,0.15
7,TATGCCACGTGGTAGA,-0.09
8,GCTTTCACGTGTATTA,0.24
9,CAGGTCACGTGGGATG,-0.05
10,TGGGACACGTGCGTGC,-0.14
11,GGTTTCACGTGGCTTT,0.32
12,GGATCCACGTGGCGGG,-0.02
13,CCGTGCACGTGTGTGT,-0.09
14,AGGATCACGTGCGGTA,0.1
15,TGGGTCACGTGTGCGG,0.12
16,ATGGCCACGTGGATGG,-0.1
17,ACGTTCACGTGTAGTG,0.28
18,TTACGCACGTGGGAGG,-0.26
19,AGGTACACGTGTATTA,0.06
20,TGTAGCACGTGGTGGC,-0.07
21,TGTGGCACGTGTTGCA,-0.18
22,ACGTTCACGTGGCGTT,0.15
